According to PubChem BioAssay AID2451 (National Center for Advancing Translational Sciences (NCATS), 2010):
Among all 290,000 compounds or so, about 2,100 (0.72%) were called active. This list was built around the results that the source calls inconclusive (neither active nor inactive); the mix of calls is not that of the screen. The call rests on the fitted dose curve; in most records, active means well fitted inhibition curve with a large enough effect; inconclusive means small, poorly fitted or top-dose-only effect, or effect the other way; inactive means flat fitted curve, though single readings scatter. Where the call is inconclusive, the potency comes from a doubtful curve fit.

These compounds were tested against Fructose-bisphosphate aldolase (Giardia intestinalis (strain ATCC 50803 / WB clone C6)) (UniProt A8B2U2) (assay: qHTS Assay for Inhibitors of Fructose-1,6-bisphosphate Aldolase from Giardia Lamblia). Details: purified Giardia FBPA; activity, negative = inhibition: at 59.6 µM (top of the series) unless noted.
Summary of the method: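 40 nM FBPA preincubated 10 min at RT with compound (up to 57.5 uM final), then substrate plus GAPDH/TPI/NAD/arsenate coupling and diaphorase/resazurin added. Fluorescence read after 20 min at RT, 525/598 nm.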
Further: nearly all actives have a fitted effect of over 55% in size.
On the % scale 0 is the no-effect control and ±100 the full control effect; potency means the concentration at half of the fitted maximal effect; tags describe the fitted curve by direction and shape.

Chain of UniProt A8B2U2 (A8B2U2 whole entry, looked up): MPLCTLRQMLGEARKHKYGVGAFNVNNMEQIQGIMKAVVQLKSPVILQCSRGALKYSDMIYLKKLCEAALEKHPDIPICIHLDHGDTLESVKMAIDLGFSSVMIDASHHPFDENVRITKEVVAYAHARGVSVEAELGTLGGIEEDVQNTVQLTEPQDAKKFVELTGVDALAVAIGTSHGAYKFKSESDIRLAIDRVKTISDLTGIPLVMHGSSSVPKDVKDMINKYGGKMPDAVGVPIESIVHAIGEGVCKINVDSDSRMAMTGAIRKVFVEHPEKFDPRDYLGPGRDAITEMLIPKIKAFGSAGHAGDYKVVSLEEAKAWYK

| SMILES | Potency | activity, negative = inhibition |
| --- | --- | --- |
| CCOC(=O)C(N)CSC1CC(=O)N(CCc2ccccc2)C1=O (stereo unspecified) | inconclusive: 10 µM [inhibitor, partial curve] |  |
| O=C1Cc2ccccc2C(=O)N1CCc1ccccc1 | inconclusive: 1.77 µM [inhibitor, full curve] |  |
| NNC(=O)c1nc[nH]c1C(=O)Nc1ccccn1 |  | inactive: -0.238% |
| COc1ccc(-n2c(C)cc(/C=C3/SC(=O)N(CC(=O)N4CCOCC4)C3=O)c2C)cc1 | inconclusive: 15.8 µM [inhibitor, partial curve] |  |
| O=C(NCc1ccco1)c1ccc([N+](=O)[O-])o1 |  | inactive: -15.5% |
| CNCCCOc1cccc(Oc2ccccc2)c1 | inconclusive: 22.3 µM [inhibitor, single point] |  |
| CC(C)=CCC/C(C)=C/CC/C(C)=C/CC/C(C)=C/CC1=C(C)C(=O)c2ccccc2C1=O | inconclusive: 15.8 µM [inhibitor, partial curve] |  |
| COC(=O)c1c(NC(=O)/C=C/C(=O)O)sc(C)c1-c1ccc(C)cc1 | inconclusive: 19.9 µM [activator, single point] |  |
| O=C(O)CN1CCN(Cc2ccc(F)cc2Cl)C1=O | inconclusive: 31.5 µM [inhibitor, single point] |  |
| NC(=S)NNC(=O)[C@@H]1CCCC[C@@H]1C(=O)O | inconclusive: 11.2 µM [inhibitor, partial curve] |  |
| CCc1ccc(S(=O)(=O)/N=C2\C=CC(=O)c3ccccc32)cc1 | active: 7.06 µM |  |
| COc1ccc(CC(=O)N2CCN(c3ccccc3F)CC2)cc1OC |  | inactive: 7.56% |
| [O-][n+]1onc2c1CCC(=N/O)/C2=N\Nc1ccccc1 | inconclusive: 17.7 µM [inhibitor, partial curve] |  |
| O=C1C2CCCN2C(=O)N1CCCN1CCN(c2cccc(Br)c2)CC1 (stereo unspecified) | inconclusive: 14.1 µM [inhibitor, partial curve] |  |
| O=C(O)c1ccc(Cn2cnc3cccnc32)cc1 | inconclusive: 35.5 µM [inhibitor, partial curve] |  |
| COc1cccc(C2NC(=S)NC3=C2CCc2ccccc23)c1 (stereo unspecified) | active: 15.8 µM |  |
| Cc1cc(NC(=O)Nc2cc(Cl)ccc2C)no1 |  | inactive: 1.28% |
| COc1cccc(C(=O)Nc2nc(-c3ccncc3)cs2)c1 | inconclusive: 17.7 µM [inhibitor, single point] |  |
| COc1ccc(NC2c3ccccc3C(=O)N2c2ccccn2)cc1 (stereo unspecified) | inconclusive: 35.4 µM [inhibitor, single point] |  |
| CCC(=O)N1CCc2cc(OC)c(OC)cc2C1COc1ccc(OC)cc1 (stereo unspecified) |  | inactive: -4.3% |
| O=C(O)c1cc2c(cn1)[nH]c1ccccc12 | inconclusive: 12.6 µM [activator, partial curve] |  |

| SMILES | Potency | activity, negative = inhibition |
| --- | --- | --- |
| CN(C)S(=O)(=O)c1ccc(-c2csc(N/N=C/c3ccco3)n2)cc1 |  | inactive: -8.6% |
| N#C/C(=C(/O)COC(=O)c1ccc(O)cc1)c1nc2ccccc2[nH]1 | active: 9.98 µM |  |
| NNC(=S)NC1CCCCC1 | inconclusive: 15.8 µM [inhibitor, single point] |  |
| O=C(N/N=C/c1cnc(N2CCOCC2)s1)c1ccccc1 |  | inactive: -1.53% |
| COc1ccc(NC(=O)C2CC(c3c(F)cccc3Cl)=NO2)cc1OC (stereo unspecified) |  | inactive: -0.144% |
| C/C(=N\NC(=O)c1cc(-c2cccc(OC(C)C)c2)nc2ccccc12)c1cccnc1 |  | inactive: -4.52% |
| COc1ccccc1NC(=O)c1ccc2nc(C)sc2c1 |  | inactive: -15.6% |
| Cc1cccn2cc(-c3c[nH]c4ccccc34)nc12 |  | inactive: -17.9% |
| Cc1cc(O)c(N)c(C)c1Cl | inconclusive: 17.7 µM [inhibitor, single point] |  |
| Cc1ccc(Nc2nc(C)nc3c2oc2ccccc23)cc1 |  | inactive: -0.382% |
| CCN(Cc1ccccc1)Cc1ccc(OCc2ccccc2)cc1 | inconclusive: 39.8 µM [inhibitor, single point] |  |
| CN(c1ccccc1)S(=O)(=O)c1ccc(C(=O)Nc2nnc(C3CC3)o2)cc1 | active: 4.46 µM |  |
| COc1cc(C2CC(=O)N3CN(Cc4ccco4)CSC3=C2C#N)ccc1OCc1ccccc1 (stereo unspecified) | inconclusive: 1.99 µM [inhibitor, partial curve] |  |
| OCCNC(=S)Nc1ccc2nsnc2c1 | inconclusive: 17.7 µM [inhibitor, partial curve] |  |
| Cn1nc(C(C)(C)C)cc1C(=O)O |  | inactive: -2.56% |
| c1ccc(-c2cccs2)nc1 |  | inactive: 5.21% |
| OCCN(Cc1ccccc1)Cc1ccccc1O | inconclusive: 19.9 µM [inhibitor, partial curve] |  |
| CCOc1cc2[nH]c(=S)n(CCCN3CCCC3=O)c(=O)c2cc1OCC | inconclusive: 17.7 µM [inhibitor, single point] |  |
| Cc1cc(C)n(Cc2cc(C(=O)O)c3ccccc3n2)n1 | inconclusive: 19.9 µM [inhibitor, single point] |  |
| CSc1nn(CCc2ccncc2)c(=S)s1 | inconclusive: 17.7 µM [inhibitor, single point] |  |
| COc1ccc(OC)c(-c2nc3cc4ccccc4cc3nc2-c2ccccc2)c1 |  | inactive: -7.32% |

| SMILES | Potency | activity, negative = inhibition |
| --- | --- | --- |
| Cc1c(Cl)cnn1CC(=O)NC1C(=O)N2C(C(=O)O)=C(CSc3nnnn3C)CSC12 (stereo unspecified) | inconclusive: 15.8 µM [inhibitor, single point] |  |
| C=CCN(CC=C)CCOc1cc(C)ccc1[N+](=O)[O-] | inconclusive: 15.8 µM [inhibitor, partial curve] |  |
| COc1ccc(-c2nn(CCC#N)cc2C=C(C#N)C#N)cc1 | inconclusive: 19.9 µM [inhibitor, partial curve] |  |
| Cc1nnc(SCC2=C(C(=O)O)N3C(=O)C(NC(=O)Cn4ncc(Cl)c4C)C3SC2)s1 (stereo unspecified) | active: 19.9 µM |  |
| CC1(C)CC(N2CCCC2)=CC(=[N+]2CCCCCC2)C1 |  | inactive: 3.66% |
| Cc1ccc(N=Nc2c(C)[nH]n(-c3ccccc3)c2=O)cc1Br | inconclusive: 10 µM [inhibitor, partial curve] |  |
| O=C1Nc2ccccc2SC(c2ccccc2)C1O (stereo unspecified) | inconclusive: 17.7 µM [inhibitor, partial curve] |  |
| CCS(=O)(=O)N1CCN(c2ccc([N+](=O)[O-])c(NCc3cccnc3)c2)CC1 | inconclusive: 17.7 µM [inhibitor, single point] |  |
| COc1ccc(CNC(=O)CSc2nc(SC)ns2)cc1 |  | inactive: 4.92% |
| O=S(=O)(c1cccc(C(F)(F)F)c1)N(CCCN1CCOCC1)Cc1cccs1 | inconclusive: 17.7 µM [inhibitor, partial curve] |  |
| Nc1ccc(CCN2CCCC2)cc1 | inconclusive: 25.1 µM [inhibitor, partial curve] |  |
| O=[N+]([O-])c1cc(Br)c(O)c(C=Nc2ccc(N3CCOCC3)cc2)c1 | inconclusive: 0.998 µM [inhibitor, full curve] |  |
| CCCS(=O)(=O)NCCc1cc2cc(C)c(C)cc2[nH]c1=O |  | inactive: -2.31% |
| O=C1C(Cl)=C(NC(=O)c2ccccc2)C(=O)C(Cl)=C1NC(=O)c1ccccc1 | active: 5.62 µM |  |
| Nc1cc2nc3ccccc3nc2cc1N | inconclusive: 0.446 µM [inhibitor, full curve] |  |
| CCOC(=O)CNC(=S)N(CCCN1CCN(C)CC1)Cc1cccs1 |  | inactive: 8.43% |
| Cc1ccc(F)cc1NCC(=O)Nc1ccc(Br)cc1 |  | inactive: 0.216% |
| Oc1c(Cl)cc(Cl)cc1/C=N/NC(=S)NC1CC2C=CC1C2 (stereo unspecified) |  | inactive: 29.5% |
| COc1cccc(N2C(=O)NC(=O)/C(=C\c3ccc([N+](=O)[O-])s3)C2=O)c1 | inconclusive: 15.8 µM [inhibitor, single point] |  |
| COCCN(CCOC)S(=O)(=O)c1ccc(C(=O)Nc2nnc(COC)o2)cc1 | inconclusive: 22.3 µM [inhibitor, partial curve] |  |
| c1ccc(C2=NNC(c3ccccn3)=NN2)nc1 | active: 7.94 µM |  |

| SMILES | Potency | activity, negative = inhibition |
| --- | --- | --- |
| CC(C)(C)NNC(=S)Nc1ccc(S(=O)(=O)N2CCOCC2)cc1 | active: 22.3 µM |  |
| CSc1nsc(SCC(=O)Nc2nncs2)n1 |  | inactive: -3.24% |
| CCOC(=O)N1CCN(Cc2ccc3ccccc3c2)CC1 | active: 25.1 µM |  |
| CCOC(=O)c1[nH]ncc1CN1CCc2ccc(NC(=O)C3CCCO3)cc2C1 (stereo unspecified) |  | inactive: -12.6% |
| CC(=O)C1=C(C)OC(N)=C(C#N)C1c1cccnc1 (stereo unspecified) | inconclusive: 17.7 µM [inhibitor, partial curve] |  |
| COC(=O)[C@@]1(Cc2ccccc2)[C@H]2c3cc(C(=O)N(C)C)n(Cc4ccc(OC)c(OC)c4)c3C[C@H]2CN1C(=O)c1ccccc1 |  | inactive: -3.64% |
| CCn1cc(C(=O)NC(=S)Nc2cccc(O)c2)cn1 |  | inactive: -11.9% |
| CCCOc1ccc(/C(O)=C2\C(=O)C(=O)N(CCCOC)C23C(=O)N(C)c2ccccc23)cc1 (stereo unspecified) | inconclusive: 5.61 µM [activator, full curve] |  |
| O=C(CSc1nc2ccccc2c(=O)n1-c1ccc(F)cc1)Nc1ccc2c(c1)CCC2 |  | inactive: 0.468% |
| COc1ccc(Oc2cnn(-c3ccccc3)c(=O)c2Br)cc1 |  | inactive: 2.88% |
| CCN(CC)S(=O)(=O)c1ccc(NC(=O)c2ccc(Cl)nc2)cc1 |  | inactive: -1.73% |
| O=C(NCCNC(=O)c1cccnc1)c1ccc(Br)cc1 |  | inactive: 12.5% |
| COC(=O)/C=C1/C(=O)N/C(=N\c2nc(C)cc(C)n2)N1c1ccc(OC)cc1 | inconclusive: 5 µM [inhibitor, partial curve] |  |
| CN(CCc1ccccn1)C(=S)NC(=O)c1ccco1 | inconclusive: 17.7 µM [inhibitor, partial curve] |  |
| CC1CCCCC1NC(=O)c1ccc(S(=O)(=O)NCc2ccco2)cc1 (stereo unspecified) |  | inactive: -5.27% |
| O=C(NN=C1CCCC1)c1[nH]c2ccc(Br)cc2c1-c1ccccc1 |  | inactive: -0.312% |
| Cc1cccc2c3c(ccc12)C1=C(C(=O)C3=O)[C@@H](C)CO1 | active: 7.06 µM |  |
| O=C(N/N=C/c1[nH]c2ccccc2c1Cl)c1cccc(Br)c1 |  | inactive: -1.38% |
